The campaign covered roughly 350,000 compounds. About 9,900 (2.8%) were called active. Inconclusive means that the source gave no clear call. Such entries were picked first, then a sample of the others. The call rests on the fitted dose curve; in most records, active means well fitted activation curve with a large enough effect; inconclusive means small, poorly fitted or top-dose-only effect; inactive means no such curve, though single readings can be large or run the other way. No potency is given beside an inconclusive call; the fits are too rough.
Assay: A quantitative high throughput screen for small molecules that induce DNA re-replication in MCF 10a normal breast cells. Further: nearly all actives have a fitted effect of over 50% in size.
Details: MCF 10A DNA re-replication, Hoechst nuclear intensity, 48 h; series mostly up to 46.1 µM
Potency means the concentration at half of the fitted maximal effect; tags describe the fitted curve by direction and shape.

Question: With `COc1ccc(C(=O)/C=C/C(=O)N(CC(=O)NC2CCCCC2)Cc2ccccc2OC)c(O)c1` as the compound, how does the Potency read?
Answer: The Potency was inconclusive [activator, single point].

Question: For `COc1ccc(C(C#N)=C2C=CC(=NO)C=C2)cc1`, which Potency is on record?
Answer: Its Potency is active: 23.1 µM.

Question: With `COC(=O)N/N=C/c1ccccc1OCCOc1ccc(OC)cc1` as the compound, how does the Potency read?
Answer: The Potency was inconclusive [activator, single point].

Question: For `COC(=O)C1=C(C)NC(C)=C(C(=O)O[C@@H]2CCCN(Cc3ccccc3)C2)[C@@H]1c1cccc([N+](=O)[O-])c1`, which Potency is on record?
Answer: Its Potency is inconclusive [activator, full curve].

Question: With `O=[N+]([O-])c1ccc(N2CCCC2)nc1N1CCCC1` as the compound, how does the Potency read?
Answer: The Potency was “inactive”.

Question: With `S=c1[nH]nc(C2CCCCC2)n1/N=C/c1ccc(Br)s1` as the compound, how does the Potency read?
Answer: The Potency was active: 18.4 µM.

Question: With `O=C(NC1CCCCC1)c1cc(-c2cccs2)on1` as the compound, how does the Potency read?
Answer: The Potency was “inactive”.

Question: For `COc1ccc(N2CCN(C(=O)c3ccc(F)cc3)CC2)c([N+](=O)[O-])c1`, which Potency is on record?
Answer: Its Potency is “inactive”.

Question: For `O=[N+]([O-])c1ccc(N/N=C/c2c[nH]c3ccccc23)cc1`, which Potency is on record?
Answer: Its Potency is inconclusive [activator, single point].

Question: For `O=C(COc1ccc2ccccc2c1)NNC(=O)Nc1ccccc1F`, which Potency is on record?
Answer: The Potency was inconclusive [activator, full curve, poor fit].

Question: For `CCOC(=O)c1c(-c2ccccc2)csc1/N=C/C1C(=O)CCCC1=O`, which Potency is on record?
Answer: The Potency was inconclusive [activator, single point].

Question: Which Potency does the source give for `CN(C(=O)c1cccc(NC(=O)Cc2cccc(NC(=O)C3CCN(C(=O)C4CCC4)CC3)c2)c1)C1CC1` here?
Answer: Its Potency is inconclusive [activator, partial curve, poor fit].

Question: With `O=C1CCCC2=C1C(c1ccco1)Nc1ccc(C(=O)c3ccccc3)cc1N2` (stereo unspecified) as the compound, how does the Potency read?
Answer: The Potency was inconclusive [activator, single point].

Question: With `Cc1ccc(S(=O)(=O)Nc2cc(C(=O)Nc3cc(C)cc(C)c3)ccc2Cl)cc1` as the compound, how does the Potency read?
Answer: Its Potency is inconclusive [activator, full curve, poor fit].

Question: For `O=C(Cc1nnc(NC(=O)Nc2ccc(Cl)cc2)s1)NCc1ccccc1`, which Potency is on record?
Answer: The Potency was inconclusive [activator, partial curve, poor fit].

Question: Which Potency does the source give for `COc1cccc(OCC(=O)Nc2ccncc2)c1` here?
Answer: The Potency was “inactive”.

Question: With `OCCNCCO` as the compound, how does the Potency read?
Answer: The Potency was inconclusive [activator, full curve, poor fit].

Question: Which Potency does the source give for `CC(=O)Nc1cccc(N)c1` here?
Answer: Its Potency is inconclusive [activator, full curve, poor fit].

Question: With `c1ccc(C2=NN(c3ccccc3)C(c3ccco3)C2)cc1` (stereo unspecified) as the compound, how does the Potency read?
Answer: Its Potency is inconclusive [activator, single point].

Question: For `C=CCn1cc(Cl)c(=O)n(CC=C)c1=O`, which Potency is on record?
Answer: Its Potency is inconclusive [activator, partial curve, poor fit].

Question: For `O=C(CCN1C(=O)C2CC=CCC2C1=O)Nc1cccc(Cl)c1` (stereo unspecified), which Potency is on record?
Answer: Its Potency is “inactive”.

Question: Which Potency does the source give for `O=C(Nc1nc(-c2ccco2)c(-c2ccco2)s1)c1ccc(F)cc1F` here?
Answer: Its Potency is inconclusive [activator, partial curve, poor fit].

Question: With `CCOC(=O)CC1CCCCN1Cc1nc(-c2ccc(F)c(OC)c2)oc1C` (stereo unspecified) as the compound, how does the Potency read?
Answer: Its Potency is “inactive”.

Question: For `COc1ccccc1CCC(=O)OCC(=O)Nc1ccc(C(N)=O)cc1`, which Potency is on record?
Answer: Its Potency is “inactive”.

Question: Which Potency does the source give for `O=C(NNC(=O)c1ccc2ccccc2c1O)c1cccs1` here?
Answer: Its Potency is “inactive”.

Question: With `CCCCCCNC(=O)c1cccc(-c2ccc(C)c3ccccc23)n1` as the compound, how does the Potency read?
Answer: The Potency was inconclusive [activator, single point].

Question: With `COc1cc(OC)c(Cl)cc1N` as the compound, how does the Potency read?
Answer: The Potency was inconclusive [activator, single point].

Question: Which Potency does the source give for `CC(C)CCNc1ncnc2c1nnn2Cc1ccccc1Cl` here?
Answer: The Potency was “inactive”.

Question: With `CCCCOc1ccc(-c2cc(C(=O)NNC(=S)NCC)c3ccccc3n2)cc1` as the compound, how does the Potency read?
Answer: Its Potency is “inactive”.

Question: For `Cc1ccccc1CN(C)CC(=O)Nc1cccc(S(=O)(=O)N(C)c2ccccc2)c1`, which Potency is on record?
Answer: Its Potency is inconclusive [activator, single point].

Question: For `Cc1ccc(S(=O)(=O)CCC(=O)N(CCCN2CCOCC2)c2nc3ccccc3s2)cc1`, which Potency is on record?
Answer: The Potency was inconclusive [activator, single point].

Question: With `FC(F)Sc1ccc(-n2cc(-c3ccccc3)[n+]3c2CCC3)cc1` as the compound, how does the Potency read?
Answer: Its Potency is “inactive”.

Question: With `CC(C)Cn1c(=S)[nH]c2cc(Cl)ccc21` as the compound, how does the Potency read?
Answer: Its Potency is inconclusive [activator, partial curve, poor fit].

Question: Which Potency does the source give for `O=C(O)C1CC(O)CN1C(=S)Nc1ccccc1` (stereo unspecified) here?
Answer: The Potency was “inactive”.

Question: With `CCNC(=S)NNC(=O)C1CCCCC1` as the compound, how does the Potency read?
Answer: Its Potency is inconclusive [activator, single point].

Question: Which Potency does the source give for `S=C(NCc1ccccc1)Nc1cccc2cnccc12` here?
Answer: Its Potency is “inactive”.

Question: With `COC(=O)C1=C(C(=O)OC)C2(OC1c1cccc(F)c1)C(=O)c1ccccc1C2=O` (stereo unspecified) as the compound, how does the Potency read?
Answer: Its Potency is inconclusive [activator, full curve, poor fit].

Question: Which Potency does the source give for `CC1CCN(C(=O)COc2cccc3c2CCN(Cc2ccccc2)C3=O)CC1` here?
Answer: Its Potency is inconclusive [activator, single point].

Question: For `CCOC(=O)c1ccc(NC(=O)NCCN2CCCCC2)cc1`, which Potency is on record?
Answer: The Potency was inconclusive [activator, partial curve, poor fit].

Question: For `CC1CCN(c2ccc(NC(=S)NC(=O)c3ccco3)cc2)CC1`, which Potency is on record?
Answer: Its Potency is “inactive”.

Question: Which Potency does the source give for `Cc1ccc(C(=O)C(C)OC(=O)C2CCN(c3ccc(C(F)(F)F)cn3)CC2)cc1C` (stereo unspecified) here?
Answer: The Potency was inconclusive [activator, partial curve, poor fit].

Question: With `Cn1cccc1C(=O)c1cccc([N+](=O)[O-])c1` as the compound, how does the Potency read?
Answer: Its Potency is inconclusive [activator, partial curve, poor fit].

Question: Which Potency does the source give for `Cc1cc(NC(=O)CS(=O)(=O)c2cn(Cc3ccccc3Cl)c3ccccc23)no1` here?
Answer: The Potency was inconclusive [activator, single point].

Question: Which Potency does the source give for `CCOC(=O)c1c(NC(=O)c2nn(CC)cc2Br)sc2c1CCCCC2` here?
Answer: Its Potency is “inactive”.

Question: For `O=C1C=CC(=O)N1c1ccc2ccccc2c1`, which Potency is on record?
Answer: Its Potency is inconclusive [activator, single point].

Question: Which Potency does the source give for `O=C(NCCCN1CCOCC1)c1ccc2c(c1)N(Cc1ccccc1)C(=O)c1ccccc1S2` here?
Answer: The Potency was inconclusive [activator, single point].

Question: For `Cc1cccc(N2CCN(C(=O)Cc3cn(C)c4ccccc34)CC2)c1C`, which Potency is on record?
Answer: The Potency was active: 18.4 µM.

Question: For `COc1ccc(-c2cc3nc(-c4ccccc4)cc(N4CCCC(O)C4)n3n2)cc1` (stereo unspecified), which Potency is on record?
Answer: Its Potency is active: 20.6 µM.

Question: Which Potency does the source give for `O=C(CN1C(=O)NC2(CCCCC2)C1=O)N1CCN(S(=O)(=O)c2ccccc2)CC1` here?
Answer: Its Potency is inconclusive [activator, single point].

Question: Which Potency does the source give for `CCCN1Cc2cccc(C(=O)Nc3ccc4c(c3)OCO4)c2C1=O` here?
Answer: Its Potency is inconclusive [activator, single point].

Question: With `CCOC(=O)/C=C/C(=O)Nc1ccc(S(=O)(=O)N(C)c2ccccc2)cc1` as the compound, how does the Potency read?
Answer: Its Potency is inconclusive [activator, single point].

Question: For `O=C(Nc1cccnc1)c1ccc(COc2ccccc2Br)cc1`, which Potency is on record?
Answer: Its Potency is “inactive”.

Question: With `COc1ccc(-c2nc(-c3ccc(NC(=O)c4ccc(Br)o4)cc3)no2)cc1OC` as the compound, how does the Potency read?
Answer: The Potency was active: 2.59 µM.

Question: With `COc1ccc(-c2oc(NC(=O)CSc3ncn[nH]3)c(C#N)c2-c2ccc(OC)cc2)cc1` as the compound, how does the Potency read?
Answer: The Potency was active: 14.1 µM.

Question: With `COC1=C(Br)C(=O)c2ncccc2C1=O` as the compound, how does the Potency read?
Answer: Its Potency is active: 5.17 µM.

Question: Which Potency does the source give for `CC(C)(C)C(=O)Nc1nc(NC(=O)C(C)(C)C)nc(-c2ccccc2Cl)n1` here?
Answer: The Potency was “inactive”.

Question: Which Potency does the source give for `NC(=S)N/N=C/c1ccccc1OCc1cccc(Cl)c1` here?
Answer: The Potency was inconclusive [activator, single point].

Question: With `Cn1c2ccccc2c(=O)c2ccc(C#Cc3ccc(N)cc3)cc21` as the compound, how does the Potency read?
Answer: The Potency was inconclusive [activator, single point].

Question: With `CCN(CC)c1ccc2cc(-c3nnc(-c4ccncc4)o3)c(=O)oc2c1` as the compound, how does the Potency read?
Answer: The Potency was “inactive”.

Question: Which Potency does the source give for `CCN(CC)CCNC(=O)C1CCN(S(=O)(=O)c2c(C)noc2/C=C/c2ccccc2F)CC1` here?
Answer: Its Potency is inconclusive [activator, partial curve, poor fit].

Question: For `C=CCN(CC=C)C(=O)c1cc(Cl)ccc1[N+](=O)[O-]`, which Potency is on record?
Answer: Its Potency is “inactive”.

Question: Which Potency does the source give for `CCC/C=N/NC(=O)c1[nH]c2c([N+](=O)[O-])cccc2c1C` here?
Answer: Its Potency is active: 6.51 µM.

Question: With `Cc1ccc2c(c1)Sc1c(ccc3ccccc13)N2` as the compound, how does the Potency read?
Answer: The Potency was inconclusive [activator, single point].

Question: With `CCn1c(SCC(=O)O)nnc1-c1ccc2[nH]c(C)c(C)c2c1` as the compound, how does the Potency read?
Answer: The Potency was inconclusive [activator, partial curve, poor fit].

Question: With `CCOc1ccc(NC(=O)OCCN2CCN(CCc3ccccc3)C(C)C2)cc1` (stereo unspecified) as the compound, how does the Potency read?
Answer: Its Potency is inconclusive [activator, partial curve, poor fit].

Question: For `COc1ccc(COC(=O)C2=C(C)NC(=O)NC2c2ccc(OC)cc2)cc1` (stereo unspecified), which Potency is on record?
Answer: The Potency was inconclusive [activator, partial curve].

Question: For `CN(C(=O)c1ccc(NC(=O)Cc2cccc(NC(=O)C3CCN(C(=O)c4ccccc4)CC3)c2)cc1)C1CCCC1`, which Potency is on record?
Answer: The Potency was inconclusive [activator, partial curve, poor fit].

Question: For `CC(C(=O)NCc1cccs1)N1CCN(S(=O)(=O)c2ccc3c(c2)OCCCO3)CC1` (stereo unspecified), which Potency is on record?
Answer: The Potency was “inactive”.

Question: For `CCC(C)NC(=O)c1ccc2nc(-c3ccc(OC)c(OC)c3)c(-c3ccc(OC)c(OC)c3)nc2c1` (stereo unspecified), which Potency is on record?
Answer: Its Potency is active: 14.6 µM.

Question: Which Potency does the source give for `O=C(Nc1nccs1)c1cc([N+](=O)[O-])ccc1Cl` here?
Answer: The Potency was inconclusive [activator, single point].

Question: With `O=c1oc2ccccc2n1CCn1c2ccccc2c2nc3ccccc3nc21` as the compound, how does the Potency read?
Answer: The Potency was inconclusive [activator, single point].

Source: PubChem BioAssay AID624296 (National Center for Advancing Translational Sciences (NCATS), 2012)
